Results reported in the RNAGym collection of RNA variant scans (doi:10.7554/elife.90254).
The source gives no read counts; variants with many changes may rest on few reads.

B1: LINE1-full (parent)
chain: UACGUAGGUGGUUUUCCCCUGAUAGUGCUAAGGGGGCCUGGAAGUUUGGACUGGGCAGAGCUCAACACAGCGUGGCAAAGUGGCUGUGGCUAGACUGCCUCUCUGGAUUCCUCGUCACUCAGCAGGGCAUCUCUGAGAGAAAUGCC

Variants of: B1
Assay: self-cleavage, relative activity (ratio to wild type); higher = more cleavage; in vitro, sequencing; the parent is a self-cleaving ribozyme

Variant | self-cleavage
UACGUAGGUGGUUUUCCCCUGAUAGUGCUAAGGGGGCCUGGAAGUUUGGACUGGCCAGAGCUCAACACAGCGUGGCAAAGUGGCUGUGGCUAGACUGCCUCUCUGGAUUCCUCGUCACUCCGCAGGGCAUCUCUGAGAGAAACGCC [G55C A121C U143C] | 0.18
UACGUAGGUGGUUUUCCCCUGAUAGUGCUAAGGGGGCCUGGAAGUUUGGACUGGCCAGAGCUCAACACAGCGCGGCAAAGUGGCUGGGGCUAGACUGCCUCUCUGGAUUCCUCGUCACUCAGCAGGGCAUCCCUGAGUGAAAUGCC [G55C U73C U87G U132C A138U] | 0.09
UACGUAGGUGGUUUUCCCCUGAUAGUGCUAAGGGGGCCUGGAAGUUUGGACUGGUCGGAGCUCAACACAGCGUGGCAAAGUGGCUGUGGCUAGACUGCCUCUCUGGAUUCCUCGCCACUCAGCAGGGCAUCUCAGAGAGAACUGCC [G55U A57G U115C U134A A142C] | 0.2
UACGUAGGUGGUUUUCCCCUGAUAGUGCUAAGGGGGCCUGGAAGUUUGGACUGGUCAGGGCUCAACACAGCGUGGCAAAGUGGCUGUGGCUAGACUGCCUCUCUGGAUUCCUCGUCACUCAGCAGGGCAUCUCUGAGAGAAAUGCU [G55U A59G C146U] | 0.05
UACGUAGGUGGUUUUCCCCUGAUAGUGCUAAGGGGGCCUGGAAGUUUGGACUGGUCAGAGCUCAACACAGCGUGGCGAAGUGGCUGUGGCUAGACUGCCUCUCUGGAUUCCUCGCCACUCAGCAGGGCAUCUCUGAGAGAAAUGCC [G55U A77G U115C] | 0.7
UACGUAGGUGGUUUUCCCCUGAUAGUGCUAAGGGGGCCUGGAAGUUUGGACUGGUCAGAGCUCAACACAUCGUGGCAAAGUGGCUGUGGCUAGACUACCUCUCUGGAUUCCUCGUCACUCAGCAGGGCAUCCCUGAGAGAAAUGCC [G55U G70U G97A U132C] | 0.03
UACGUAGGUGGUUUUCCCCUGAUAGUGCUAAGGGGGCCUGGAAGUUUGGACUGGUCAGAGCUCAACACAGCGUGGCAAAGUGGCUGUGGCUAGACUGCCUCUCUGGAGUCCUCGUCACUCAGCAGGGCAUCUCUGAGAGAGAUGCC [G55U U108G A141G] | 0.09
UACGUAGGUGGUUUUCCCCUGAUAGUGCUAAGGGGGCCUGGAAGUUUGGACUGGGAAGAGCUCGACACAGCGUGGCAAGGUGGCCGUGGCUAGACUGCCUCUCUGGAUUCCUCGUCACUCAGCAGGGCAUCUCUGAGAGAAAUGCC [C56A A64G A79G U85C] | 0.03
UACGUAGGUGGUUUUCCCCUGAUAGUGCUAAGGGGGCCUGGAAGUUUGGACUGGGAAGAGCUCAACACAGCGUGGCAGAGUGGCUGUGGCUAGACUGCCUCUCUGGAUUCCUCGUCACUCAGCAGGGCUUCUCUGAGAGAAAUGCC [C56A A78G A129U] | 0.06
UACGUAGGUGGUUUUCCCCUGAUAGUGCUAAGGGGGCCUGGAAGUUUGGACUGGGGGGAGCUCAACACAGCGUGGCAAAGUGGCUGUUGCUAGACUGCCUCUCUGGAUUCCUCGUCACUCAGCAGGGCGUCUCUGAGGGAAAUGCC [C56G A57G G88U A129G A138G] | 0
UACGUAGGUGGUUUUCCCCUGAUAGUGCUAAGGGGGCCUGGAAGUUUGGACUGGGGAGAGCUCUACACAGCGUGGCAAUGUGGCUGUGGCUAGACUGCCUCUCUGGAUUCCUCGUCACUCAGCAGGGCAUCUCUGAGAGAAAUGCC [C56G A64U A79U] | 0.04
UACGUAGGUGGUUUUCCCCUGAUAGUGCUAAGGGGGCCUGGAAGUUUGGACUGGGUAGAGCUCAGCACAGCGUGGCAAAGUGGCUGUGGCUAGACUGCCUCUCUGGAUUCCUCGUCACUCAGCAGGGCAUCUCUGAGUGAAAUGCC [C56U A65G A138U] | 0.04
UACGUAGGUGGUUUUCCCCUGAUAGUGCUAAGGGGGCCUGGAAGUUUGGACUGGGUAGAGCUCAACACGGCGUGGCAAAGUGGCUGUGGCUAGACUGCCUCUCUGGAUUCCUCGUCACUCAGCAGGGCAUCUCUGGGAGAGAUGCC [C56U A69G A136G A141G] | 0
UACGUAGGUGGUUUUCCCCUGAUAGUGCUAAGGGGGCCUGGAAGUUUGGACUGGGUAGAGCUCAACACUGCGUGGCAAAGUGGCUGUGGCUAGACUGCCUCUCUGGAUUCCUCGUCACUCAGCAGGGCAUCUCUGAGAGAAGUGCC [C56U A69U A142G] | 0.09
UACGUAGGUGGUUUUCCCCUGAUAGUGCUAAGGGGGCCUGGAAGUUUGGACUGGGUAGAGCUCAACACAGCGUGGCGAAGUGGCUGUGGCUAGACUGCCUCUCCGGAUUCCUCGUCUCUCAGCAGGGCAUCUCUGAGAGAAAUGCC [C56U A77G U104C A117U] | 0.19
UACGUAGGUGGUUUUCCCCUGAUAGUGCUAAGGGGGCCUGGAAGUUUGGACUGGGUAGAGCUCAACACAGCGUGGCAAGGUGGCUGUGGCUAGACUGCCUCUCUGGAUUCCUCGUCACUCAGCAGGGCAUCUCUGUGAGAAAUGCC [C56U A79G A136U] | 0.35
UACGUAGGUGGUUUUCCCCUGAUAGUGCUAAGGGGGCCUGGAAGUUUGGACUGGGUAGAGCUCAACACAGCGUGGCAAUGUGGCUGUGGCUAGACUGCCUCACUGGAUUCCUCGUCACCCAGCAGGGCAUCUCUGAGAGAAAUGCC [C56U A79U U102A U119C] | 0.13
UACGUAGGUGGUUUUCCCCUGAUAGUGCUAAGGGGGCCUGGAAGUUUGGACUGGGUAGAGCCCAACACAGCGUGGCAAAGUGGCUGUGGCUAGACUGCCUCUCUGGAUUCCUCGUCACUCAGCAGGGCAUCUCUGAGAGAGAUGCC [C56U U62C A141G] | 0.06
UACGUAGGUGGUUUUCCCCUGAUAGUGCUAAGGGGGCCUGGAAGUUUGGACUGGGUAGAGCUCAACACAGCGUGGCAAAGUGGCCGUGGCUAGACUGCCACUCUGGAUUCCUCGUCACUCAGCAGGGCAUCUCUGAGAGAAAUGCC [C56U U85C U100A] | 0.02
UACGUAGGUGGUUUUCCCCUGAUAGUGCUAAGGGGGCCUGGAAGUUUGGACUGGGUAGAGCUCAACACAGCGUGGCAAAGUGGCUGAGGCUAGACAGCCUCUCUGGAUUCCUCGUCACUCAGCAGGGCAUCUCUGAGAGAAAUGCC [C56U U87A U96A] | 0.04

Variant | self-cleavage
UACGUAGGUGGUUUUCCCCUGAUAGUGCUAAGGGGGCCUGGAAGUUUGGACUGGGUAGAGCUCAACACAGCGUGGCAAAGUGGCUGUGGCUAGACAGCCUCCCUGGAUUCCUCGUCACUCAGCAGGGCAUCUCUGAGAGAAAUGCC [C56U U96A U102C] | 0.04
UACGUAGGUGGUUUUCCCCUGAUAGUGCUAAGGGGGCCUGGAAGUUUGGACUGGGUAGAGCUCAACACAGCGUGGCAAAGUGGCUGUGGCUAGACUGCCUCUCAGGAUUCCUCGUCACUCAGCAGGGCAUCUCUGGGAGAAAUGCC [C56U U104A A136G] | 0.15
UACGUAGGUGGUUUUCCCCUGAUAGUGCUAAGGGGGCCUGGAAGUUUGGACUGGGUAGAGCUCAACACAGCGUGGCAAAGUGGCUGUGGCUAGACUGCCUCUCUGGAGUCCUCGUCACUCAGCGGGGCAUCUCUGAGAGAAAUGCC [C56U U108G A124G] | 0.02
UACGUAGGUGGUUUUCCCCUGAUAGUGCUAAGGGGGCCUGGAAGUUUGGACUGGGUAGAGCUCAACACAGCGUGGCAAAGUGGCUGUGGCUAGACUGCCUCUCUGGAUUCCUCGUCACCCAGCAGGGCAUCUCUGAGAGGAAUGCC [C56U U119C A140G] | 0.5
UACGUAGGUGGUUUUCCCCUGAUAGUGCUAAGGGGGCCUGGAAGUUUGGACUGGGUAGAGCUCAACACAGCGUGGCAAAGUGGCUGUGGCUAGACUGCCUCUCUGGAUUCCUCGUCACUCAGCAGGGCACCUCUGAGAGGAAUGCC [C56U U130C A140G] | 0.07
UACGUAGGUGGUUUUCCCCUGAUAGUGCUAAGGGGGCCUGGAAGUUUGGACUGGGCCGAGCUCAACACAGCGUGGCAGAAUGGCUGUGGCUAGACUGCCUCUCUGGAUUCCUCGUCACUCAGCAGGGCAUCUCUGAGAGAAAUGCC [A57C A78G G80A] | 0
UACGUAGGUGGUUUUCCCCUGAUAGUGCUAAGGGGGCCUGGAAGUUUGGACUGGGCCGAGCUCAACACAGCGUGGCAAUGUGGCUGUGGCUAGACUGCCUCUCUGGAUUCCUCGUCACCCAGCAGGGCAUCUCUGAGGGAAAUGCC [A57C A79U U119C A138G] | 0.21
UACGUAGGUGGUUUUCCCCUGAUAGUGCUAAGGGGGCCUGGAAGUUUGGACUGGGCCGAGCUCAACACAGCGUGGCAAAGAGGCUGUGGCUAGACUGCCUCUCUGGAUUCCUCGUCACUCAGCAGGGCAUCUCUGGGAGAAAUGCC [A57C U81A A136G] | 0.07
UACGUAGGUGGUUUUCCCCUGAUAGUGCUAAGGGGGCCUGGAAGUUUGGACUGGGCCGAGCUCAACACAGCGUGGCAAAGUGGCCGUGGCUAGACUGCCUCUCUGGAUUCCUCGUCACUCAGCAGGGCUUCUCUGAGAGAAAUGCC [A57C U85C A129U] | 0
UACGUAGGUGGUUUUCCCCUGAUAGUGCUAAGGGGGCCUGGAAGUUUGGACUGGGCCGAGCUCAACACAGCGUGGCAAAGUGGCUGUGGCUAGACUGCCUCUCUGGAUCCCUCGUCGCUCAGCAGGGCAUCUCUGAGAGAAAUGCC [A57C U109C A117G] | 0
UACGUAGGUGGUUUUCCCCUGAUAGUGCUAAGGGGGCCUGGAAGUUUGGACUGGGCGGCGCUCAACACAGCGUGGCAAAGUGGUUGUGGCUAGACUGCCUCCCUGGAUUCCUCGUCACUCAGCAGGGCAUCUCUGAGAGAAAUGCC [A57G A59C C84U U102C] | 0.09
UACGUAGGUGGUUUUCCCCUGAUAGUGCUAAGGGGGCCUGGAAGUUUGGACUGGGCGGGGCUCUACACAGCGUGGCAAAGUGGCUGUGGCUAGACUGCCUCUCUGGAUUCCUCGUCACUCAGCAGGGCAUCUCUGAGAGAAAUGCC [A57G A59G A64U] | 0.1
UACGUAGGUGGUUUUCCCCUGAUAGUGCUAAGGGGGCCUGGAAGUUUGGACUGGGCGGGGCUCAACACAGCGUGGCAAAGUGGCUGUGGCUAGACUGCCUCUCUGGAUUCCUCGUCACUCAGCAGGGCAUCUCUGAGAGAAACGCC [A57G A59G U143C] | 0.13
UACGUAGGUGGUUUUCCCCUGAUAGUGCUAAGGGGGCCUGGAAGUUUGGACUGGGCGGUGCCCAACACAGCGUGGCAAAGUGGCUGCGGCUAGACUGCCUCUCUGGAUUCCUCGUCACUCAGCAGGGCAUCUCUGAGAGAAAUGCC [A57G A59U U62C U87C] | 0
UACGUAGGUGGUUUUCCCCUGAUAGUGCUAAGGGGGCCUGGAAGUUUGGACUGGGCGGAGCUCGACUCAGCGUGGCAAAGUGGCUGUGGCUAGACUGCCUCUCUGGAUUCCUCGUCACUCAGCAGCGCAUCUCUGAGAGAAAUGCC [A57G A64G A67U G126C] | 0.12
UACGUAGGUGGUUUUCCCCUGAUAGUGCUAAGGGGGCCUGGAAGUUUGGACUGGGCGGAGCUCGACACAGCGUGGCAAGGUGGCUGAGGCUAGACUGCCUCUCUGGAUUCCUCGUCACUCAGCAGGGCAUCUCUGAGAGAGAUGCC [A57G A64G A79G U87A A141G] | 0
UACGUAGGUGGUUUUCCCCUGAUAGUGCUAAGGGGGCCUGGAAGUUUGGACUGGGCGGAGCUCGACACAGCGUGGCAAAGUGGCUGUGGCUAGACUGCCUCUCUGGAUUCCUCGUCACUCAGCAGGGCAUCUCUGAGAGAAACGCC [A57G A64G U143C] | 0.54
UACGUAGGUGGUUUUCCCCUGAUAGUGCUAAGGGGGCCUGGAAGUUUGGACUGGGCGGAGCUCUACACAGCGUGGCAAAGUGGUUGUGGCUAUGCUGCCCCCCUGGAUUCCUCAUCACUCAGCAGGGCAUCUCUGAGAGGAAUGCC [A57G A64U C84U G93U A94G U100C U102C G114A A140G] | 0
UACGUAGGUGGUUUUCCCCUGAUAGUGCUAAGGGGGCCUGGAAGUUUGGACUGGGCGGAGCUCAGCGCAGCGUGGCAAAGUGGCUGUGGCUAGACUGCCUCUCUGGAUUCCUCGUCACUCAGCAGGGCAUCUCUGAGAGAAAUGCC [A57G A65G A67G] | 0
